In the assay the target is Nonstructural protein 3 (Zika virus) (UniProt A0A024AXB9).
The mark [1] stands for this setting: PRVABC59, Concentration 10.0 uM, Number of replicates 1.0.
[2] abbreviates: PRVABC59, Concentration 50.0 uM, Number of replicates 1.0.
[3] abbreviates: PRVABC59, Concentration 15.0 uM, Number of replicates 1.0.

Molecules are shown by their SMILES. Screen size: about 2,700 compounds; about 160 (5.9%) showed an effect of 50% or more. The list shows a part of the results.

Sequence of UniProt A0A024AXB9 (A0A024AXB9 as listed by the source): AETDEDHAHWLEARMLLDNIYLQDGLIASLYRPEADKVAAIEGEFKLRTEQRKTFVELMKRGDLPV

Regarding `Cc1cc(CO)c2cccc(Cc3ccccc3NC(=O)[C@@H]3CCCC[C@H]3C(=O)O)c2n1`, the inhibition – broadly, the drop in the measured response relative to a control, in per cent – (PRVABC59, Concentration 49.95 uM, Number of replicates 2.0, Standard deviation 1.5421677066029247 %) was 1.35% and the inhibition (PRVABC59, Concentration 99.9 uM, Number of replicates 2.0, Standard deviation 1.4251056567274625 %) was found to be 7.62%.
Regarding `O=Cc1ccc(N2CCC(C(=O)NCc3nnc(-c4ccccc4)o3)CC2)cc1`, the inhibition under setting [1] is 26%.
With `Cc1cc(CO)c2cccc(Cc3ccccc3NC(=O)c3ccno3)c2n1`, the inhibition stood at 2.18% (PRVABC59, Concentration 49.95 uM, Number of replicates 2.0, Standard deviation 1.5828849129389049 %) and 5.92% (PRVABC59, Concentration 99.9 uM, Number of replicates 2.0, Standard deviation 2.269989474171758 %).
In the case of `Cc1cc(CO)c2cccc(Nc3ccc(C(=O)O)o3)c2n1`, the inhibition runs as follows: (PRVABC59, Concentration 49.95 uM, Number of replicates 2.0, Standard deviation 2.70478007233281 %) 3.98%; (PRVABC59, Concentration 99.9 uM, Number of replicates 2.0, Standard deviation 2.574308096446364 %) 5.17%.
Turning to `C[C@H](NC(=O)C1CCN(c2ccc(C=O)cc2)CC1)c1cccc(C(F)(F)F)c1`, the inhibition under setting [1] came to 8.54%.
Consider `CC(=O)N[C@@H](CCCCN)C(=O)Nc1cccc2cccnc12`, for which the inhibition came to 16.3% (PRVABC59, Concentration 49.95 uM, Number of replicates 2.0, Standard deviation 1.4994344900621228 %) and 36.4% (PRVABC59, Concentration 99.9 uM, Number of replicates 2.0, Standard deviation 0.8351280021257822 %).
For the compound `Cc1cc(CO)c2cccc(NCc3ccc(C(N)=O)cc3)c2n1`, the inhibition (PRVABC59, Concentration 49.95 uM, Number of replicates 2.0, Standard deviation 0.6911398690966805 %) was -7.9% and the inhibition (PRVABC59, Concentration 99.9 uM, Number of replicates 2.0, Standard deviation 1.6597447488203414 %) was -2.82%.
Consider `O=Cc1ccc(N2CCC(C(=O)N[C@H](c3ccccc3)[C@@H](O)c3ccccc3)CC2)cc1`, for which, under setting [1], the inhibition stood at 17.8%.
For `CC(=O)N[C@@H](Cc1ccc(CN)cc1)C(=O)Nc1cccc2c(CO)cc(C)nc12`, the inhibition by setting is: (PRVABC59, Concentration 49.95 uM, Number of replicates 2.0, Standard deviation 1.5120886598590335 %) 62.5%; (PRVABC59, Concentration 99.9 uM, Number of replicates 2.0, Standard deviation 0.31634008358167093 %) 95.8%.
Turning to `Cn1cccc(C(=O)Nc2cc(Cl)cc(C(=O)NC(C)(C)CO)c2)c1=O`, the inhibition (PRVABC59, Concentration 49.5 uM, Number of replicates 2.0, Standard deviation 0.30356722825935345 %) is -5.7% and the inhibition (PRVABC59, Concentration 99.01 uM, Number of replicates 2.0, Standard deviation 3.4992289478002414 %) is -9.4%.
For the compound `Cc1nc([C@H]2CC[C@H](NC(=O)c3ccc(O)c(NC(=O)c4ccncc4F)c3C)CC2)n[nH]1`, the inhibition is -0.145% (PRVABC59, Concentration 49.5 uM, Number of replicates 2.0, Standard deviation 1.8524213427177132 %); 1.05% (PRVABC59, Concentration 99.01 uM, Number of replicates 2.0, Standard deviation 2.7773366306875875 %); 2.07% (PRVABC59, Concentration 198.0 uM, Number of replicates 2.0, Standard deviation 2.4534867584179723 %).
Take `COc1cc2c(cc1OC)C(=O)[C@@H](CC1CCN(C(=O)C3CCN(c4ccc(C=O)cc4)CC3)CC1)C2`: the inhibition under setting [2] was -0.737%.
For the compound `O=Cc1ccc(N2CCC(C(=O)NCCc3cccc(Br)c3)CC2)cc1`, under setting [2], the inhibition is 23.4%.
Consider `O=C(c1cc(Cl)ccc1NS(=O)(=O)c1ccc(Oc2ccccc2Cl)cc1)N1Cc2ccccc2C[C@@H]1CO`, for which the inhibition under setting [3] was found to be 15.1%.
On to `CCn1nnc(Cn2cc(C3CCNCC3)c(C)n2)n1`, for which the inhibition reads like this: (PRVABC59, Concentration 49.5 uM, Number of replicates 2.0, Standard deviation 0.8782391231154009 %) -0.555%; (PRVABC59, Concentration 99.01 uM, Number of replicates 2.0, Standard deviation 1.870400808970824 %) -0.817%; (PRVABC59, Concentration 198.0 uM, Number of replicates 2.0, Standard deviation 0.6669646053782257 %) -2.54%.
Turning to `O=C(N[C@H](C(=O)O)c1ccc(OCc2ccccc2)cc1)OCc1ccccc1`, the inhibition stood at 0.942% (PRVABC59, Concentration 49.5 uM, Number of replicates 2.0, Standard deviation 1.331842520286677 %); 3.84% (PRVABC59, Concentration 99.01 uM, Number of replicates 2.0, Standard deviation 1.0180694326604105 %); 10.9% (PRVABC59, Concentration 198.0 uM, Number of replicates 2.0, Standard deviation 0.8803707895408924 %).
With `Cc1cc(CO)c2cccc(Cc3ccccc3NC(=O)c3cc(C(F)F)nn3C)c2n1`, the inhibition runs as follows: (PRVABC59, Concentration 49.95 uM, Number of replicates 2.0, Standard deviation 1.9900580299699202 %) -2.76%; (PRVABC59, Concentration 99.9 uM, Number of replicates 2.0, Standard deviation 1.5421676223092275 %) 1.28%.
Take `Cc1cc(CO)c2cccc(Cc3ccccc3C(=O)Nc3cc(O)[nH]n3)c2n1`: the inhibition runs as follows: (PRVABC59, Concentration 49.95 uM, Number of replicates 2.0, Standard deviation 0.5138590974918532 %) 8.28%; (PRVABC59, Concentration 99.9 uM, Number of replicates 2.0, Standard deviation 0.5558070128777759 %) 19.9%.
Take `Cc1cc(CO)c2cccc(CC(=O)Nc3cc(O)[nH]n3)c2n1`: the inhibition is, setting by setting: (PRVABC59, Concentration 49.95 uM, Number of replicates 2.0, Standard deviation 0.5293246306718348 %) -5.29%; (PRVABC59, Concentration 99.9 uM, Number of replicates 2.0, Standard deviation 0.9008701737196211 %) 1.86%.
`O=C(Nc1c(Cl)c(F)nc(F)c1Cl)c1cc(Cl)ccc1NS(=O)(=O)c1ccc(Oc2ccccc2Cl)cc1`: the inhibition under setting [3] was 21.1%.
In the case of `Cc1cc(NCCN(C)C)c2ccccc2n1`, the inhibition (PRVABC59, Concentration 99.9 uM, Number of replicates 2.0, Standard deviation 3.7327696087272297 %) is -1.69%.
Regarding `CN(C)C[C@H](O)CN1CCN(C(=O)c2cc(Cl)ccc2NS(=O)(=O)c2ccc(Oc3ccccc3Cl)cc2)CC1`, the inhibition under setting [3] is -3.89%.
In the case of `CC(C)(CO)NC(=O)c1cc(Cl)cc(NC(=O)c2cccc(Cn3ccnc3)c2)c1`, the inhibition (PRVABC59, Concentration 49.5 uM, Number of replicates 2.0, Standard deviation 1.5669899033725974 %) is 2.74%; the inhibition (PRVABC59, Concentration 99.01 uM, Number of replicates 2.0, Standard deviation 2.0470978888706237 %) came to 4.64%; the inhibition (PRVABC59, Concentration 198.0 uM, Number of replicates 2.0, Standard deviation 1.6609681875389157 %) came to 7.08%.
Turning to `COc1ccc(NC(C)=O)cc1NC(=O)c1cc(Cl)ccc1NS(=O)(=O)c1ccc(Oc2ccccc2Cl)cc1`, the inhibition under setting [3] is 55%.
As to `COc1cc(Cc2cccc(-c3nnn[nH]3)c2)nc(N2CCNCC2)n1`, the inhibition by setting is: (PRVABC59, Concentration 49.5 uM, Number of replicates 2.0, Standard deviation 1.4588737117543906 %) 3.36%; (PRVABC59, Concentration 99.01 uM, Number of replicates 2.0, Standard deviation 0.9966751865940986 %) 6.34%; (PRVABC59, Concentration 198.0 uM, Number of replicates 2.0, Standard deviation 2.7085217009562133 %) 13.2%.

These data come from ChEMBL document CHEMBL5606458, “ASAP - ZIKV NS2B-NS3 protease fluorescence single point” (2024).
